Data reported in PubChem BioAssay (NCATS).
Inconclusive results, whose numbers are uncertain, are shown with a selection of clear calls. Where the call is inconclusive, the potency comes from a doubtful curve fit. Active and inactive are the calls of the source. The call rests on the fitted dose curve; in most records, active means well fitted inhibition curve with a large enough effect; inconclusive means small, poorly fitted or top-dose-only effect; inactive means no such curve, though single readings can be large or run the other way.

Each compound was assayed against Retinaldehyde dehydrogenase 3 (Homo sapiens) (UniProt P47895) (assay: qHTS for Inhibitors of the Aldehyde Dehydrogenase Family (ALDH1A3) Confirmatory screens (AID 2061311; further: nearly all actives have a fitted effect of over 60% in size)). Conditions: ALDH inhibition qHTS; series mostly up to 46 µM.
Potency means the concentration at half of the fitted maximal effect; tags describe the fitted curve by direction and shape.

Row | Structure (SMILES) | Potency
1 | COc1ccc(C(=O)NCc2nnc3ccc(-c4ccccc4)nn23)c(C)c1 | inactive
2 | CCOc1ccc(NC(=O)CN2CCN(c3ccc(Cl)cc3)CC2)cc1 | inactive
3 | O=C(Cn1cnc2onc(-c3ccc(F)cc3)c2c1=O)Nc1ccc(F)c(Cl)c1 | inconclusive: 14.1 µM [inhibitor, full curve]
4 | CCCOc1ccc(C(=O)Nc2cc3c(cc2N2CCCCC2)n(C)c(=O)n3C)cc1 | inconclusive: 8.91 µM [inhibitor, full curve]
5 | CN(C(=O)CSc1nc2ncccc2o1)c1ccc(F)cc1 | inconclusive: 31.6 µM [inhibitor, single point]
6 | CC(Oc1cccc(Cl)c1)C(=O)Nc1ccc2c(N3CCOCC3)ncnc2c1 (stereo unspecified) | inconclusive: 25.1 µM [inhibitor, partial curve]
7 | Cc1oc2ncn(CC(C)C)c(=O)c2c1C(=O)Nc1cc(F)ccc1F | inconclusive: 28.2 µM [inhibitor, partial curve, poor fit]
8 | O=C(NCc1ccncc1)c1nc(-c2cccnc2)c2cnccn12 | inconclusive: 35.5 µM [inhibitor, single point]
9 | CCOc1ccc(NC(=O)NCCCN2CCN(c3ccc(OC)cc3)CC2)cc1 | inactive
10 | CCC(=O)Nc1cc(C(=O)NCc2ccc(N3CCOCC3)cc2)c2ccc(C)nc2c1 | inconclusive: 31.6 µM [inhibitor, partial curve, poor fit]
11 | Cc1nn2c(=O)cc(COC(=O)c3ccc(C(C)(C)C)cc3)nc2s1 | inconclusive: 25.1 µM [inhibitor, partial curve, poor fit]
